Where a chain is given by its changes, count along the chain named. These are yes or no findings as the source states them, for the method shown. Some binding calls cover weakened binding; strength is not graded here. For some assays here: Sequences can lack the tags named with a protein.
Legend:
BUBR1:BUB3 complex = BUBR1:BUB3 complex (UniProt O60566); experiment: SEC; analytical SEC on Superose 6 15/50 at 4°C; 50 mM Hepes pH 8.0, 100 mM NaCl, 1 mM TCEP; proteins mixed and incubated 16 hours at 10°C; both purified
[1] = target: T1, GST-BUB1^467-521 F475A-F500A-E501A (human) (UniProt O43683); experiment: as above
T1 sequence: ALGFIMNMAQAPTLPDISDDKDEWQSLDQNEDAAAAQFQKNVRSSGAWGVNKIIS

Chains of the proteins cited; added tags and fusions are not shown. Lines headed by an entry give the natural chain unless they say otherwise; changes in a name come on top.
UniProt O60566: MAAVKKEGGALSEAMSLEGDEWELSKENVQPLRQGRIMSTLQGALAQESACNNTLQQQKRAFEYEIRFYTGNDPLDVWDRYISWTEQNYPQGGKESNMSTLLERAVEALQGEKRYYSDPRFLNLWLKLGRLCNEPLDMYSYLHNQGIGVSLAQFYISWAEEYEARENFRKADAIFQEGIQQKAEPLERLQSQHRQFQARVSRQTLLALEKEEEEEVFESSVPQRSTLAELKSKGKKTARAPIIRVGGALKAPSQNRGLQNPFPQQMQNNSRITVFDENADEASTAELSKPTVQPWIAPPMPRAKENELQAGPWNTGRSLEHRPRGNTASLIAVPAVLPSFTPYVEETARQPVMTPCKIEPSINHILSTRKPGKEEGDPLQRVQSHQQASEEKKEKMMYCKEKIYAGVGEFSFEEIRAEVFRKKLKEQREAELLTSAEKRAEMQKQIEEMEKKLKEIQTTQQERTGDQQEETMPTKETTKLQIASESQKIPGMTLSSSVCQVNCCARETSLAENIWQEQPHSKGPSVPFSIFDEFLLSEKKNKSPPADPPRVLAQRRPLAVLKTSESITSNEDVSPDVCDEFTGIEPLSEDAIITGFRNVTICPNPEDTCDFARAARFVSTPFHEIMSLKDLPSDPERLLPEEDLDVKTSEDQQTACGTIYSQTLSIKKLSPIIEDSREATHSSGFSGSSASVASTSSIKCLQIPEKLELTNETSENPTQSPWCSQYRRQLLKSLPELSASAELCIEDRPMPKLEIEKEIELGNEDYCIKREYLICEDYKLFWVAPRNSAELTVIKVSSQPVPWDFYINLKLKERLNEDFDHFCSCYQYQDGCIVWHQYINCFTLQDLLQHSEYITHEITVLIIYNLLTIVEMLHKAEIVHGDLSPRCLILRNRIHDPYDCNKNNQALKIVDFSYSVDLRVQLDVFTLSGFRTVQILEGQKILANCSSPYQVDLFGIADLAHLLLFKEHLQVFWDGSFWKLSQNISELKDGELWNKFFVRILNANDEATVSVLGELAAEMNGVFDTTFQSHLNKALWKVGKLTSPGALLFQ
UniProt P50748: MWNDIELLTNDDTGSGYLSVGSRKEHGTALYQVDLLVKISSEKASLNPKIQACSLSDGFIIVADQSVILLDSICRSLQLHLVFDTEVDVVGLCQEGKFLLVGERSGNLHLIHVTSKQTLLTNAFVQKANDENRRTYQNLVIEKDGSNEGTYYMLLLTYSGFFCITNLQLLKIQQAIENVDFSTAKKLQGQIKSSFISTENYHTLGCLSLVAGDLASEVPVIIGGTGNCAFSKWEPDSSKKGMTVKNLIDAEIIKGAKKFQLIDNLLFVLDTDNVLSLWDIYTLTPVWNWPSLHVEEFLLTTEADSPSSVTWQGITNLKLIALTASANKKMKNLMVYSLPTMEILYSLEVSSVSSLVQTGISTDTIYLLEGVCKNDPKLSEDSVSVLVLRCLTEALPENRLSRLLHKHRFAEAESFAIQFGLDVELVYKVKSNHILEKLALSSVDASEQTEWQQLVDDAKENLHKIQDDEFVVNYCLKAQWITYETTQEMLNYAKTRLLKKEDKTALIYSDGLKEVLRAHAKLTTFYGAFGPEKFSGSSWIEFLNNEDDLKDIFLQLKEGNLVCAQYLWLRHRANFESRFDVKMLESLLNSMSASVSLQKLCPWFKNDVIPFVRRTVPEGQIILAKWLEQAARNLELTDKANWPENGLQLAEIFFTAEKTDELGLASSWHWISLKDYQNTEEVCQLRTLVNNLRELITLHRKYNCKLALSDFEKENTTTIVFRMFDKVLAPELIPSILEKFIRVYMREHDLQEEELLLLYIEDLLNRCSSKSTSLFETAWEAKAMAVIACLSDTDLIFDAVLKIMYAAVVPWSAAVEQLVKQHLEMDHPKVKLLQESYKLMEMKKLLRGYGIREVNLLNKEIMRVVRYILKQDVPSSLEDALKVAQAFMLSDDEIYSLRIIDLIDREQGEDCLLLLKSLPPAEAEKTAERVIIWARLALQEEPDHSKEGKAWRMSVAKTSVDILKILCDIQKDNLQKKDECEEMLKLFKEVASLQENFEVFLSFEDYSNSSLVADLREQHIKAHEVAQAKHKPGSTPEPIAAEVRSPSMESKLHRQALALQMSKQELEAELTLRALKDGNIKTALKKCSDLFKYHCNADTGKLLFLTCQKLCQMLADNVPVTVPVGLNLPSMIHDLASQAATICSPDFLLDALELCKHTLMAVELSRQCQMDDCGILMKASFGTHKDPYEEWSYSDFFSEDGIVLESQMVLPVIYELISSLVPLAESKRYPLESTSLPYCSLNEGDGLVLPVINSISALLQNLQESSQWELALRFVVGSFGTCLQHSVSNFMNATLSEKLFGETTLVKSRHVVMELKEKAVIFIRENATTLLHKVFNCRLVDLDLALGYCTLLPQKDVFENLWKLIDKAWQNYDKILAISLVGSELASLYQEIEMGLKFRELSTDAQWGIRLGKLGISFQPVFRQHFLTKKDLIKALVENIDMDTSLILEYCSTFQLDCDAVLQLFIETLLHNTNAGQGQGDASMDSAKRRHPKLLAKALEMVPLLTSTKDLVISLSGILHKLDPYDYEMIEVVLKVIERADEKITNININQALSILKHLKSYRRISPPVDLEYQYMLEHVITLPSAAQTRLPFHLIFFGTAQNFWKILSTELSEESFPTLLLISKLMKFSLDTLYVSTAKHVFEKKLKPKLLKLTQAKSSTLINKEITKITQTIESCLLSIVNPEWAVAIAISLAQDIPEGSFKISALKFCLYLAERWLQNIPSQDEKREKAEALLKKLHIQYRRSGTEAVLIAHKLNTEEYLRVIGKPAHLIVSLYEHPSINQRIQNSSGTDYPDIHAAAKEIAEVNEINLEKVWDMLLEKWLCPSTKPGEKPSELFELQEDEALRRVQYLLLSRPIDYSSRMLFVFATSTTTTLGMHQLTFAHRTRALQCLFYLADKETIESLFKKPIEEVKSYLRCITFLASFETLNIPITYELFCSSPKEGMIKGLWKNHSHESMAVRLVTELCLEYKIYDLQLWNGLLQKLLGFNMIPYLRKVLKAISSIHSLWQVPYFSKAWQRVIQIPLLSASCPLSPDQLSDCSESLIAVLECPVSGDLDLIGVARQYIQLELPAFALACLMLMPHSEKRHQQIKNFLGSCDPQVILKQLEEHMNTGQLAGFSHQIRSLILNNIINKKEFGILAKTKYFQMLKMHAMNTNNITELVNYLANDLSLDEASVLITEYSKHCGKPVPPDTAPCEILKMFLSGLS

[2] = target: T2, GST-BUB1^467-521 F475A-P478R-F500A-E501A (human) (UniProt O43683); experiment: as above
T2 sequence: T1 sequence with P12R

[3] = target: T3, GST-BUB1^467-521 F500A-E501A (human) (UniProt O43683); experiment: as above
T3 sequence: T1 sequence with A9F

[4] = target: T1, GST-BUB1^467-521 F475A-F500A-E501A (human); experiment: pull-down; GST-BUB1 baits on GSH beads, no phosphorylation step; 50 mM Hepes pH 8.0, 100 mM NaCl, 1 mM TCEP; beads 2 hours at 4°C; SDS-PAGE, Coomassie or in-gel fluorescence; both purified
[5] = target: T2, GST-BUB1^467-521 F475A-P478R-F500A-E501A (human); experiment: as above
[6] = target: T3, GST-BUB1^467-521 F500A-E501A (human); experiment: as above
GST-BUB1^477-521 (human) = target: T4, GST-BUB1^477-521 (human) (UniProt O43683); experiment: as above
T4 sequence: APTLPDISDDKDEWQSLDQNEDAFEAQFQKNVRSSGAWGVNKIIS

Measured: binding

mCherry-tagged ROD-Zwilch-ZW10 (RZZ) complex, wild type (from UniProt P50748 1-2209; Q9H900 1-591; O43264 1-779)
binds weakly: GST-BUB1^477-521 (human)
no binding: all other assays above

— PMC12429063, “The BUB1 and BUBR1 paralogs scaffold the kinetochore fibrous corona” (Science Advances, 2025)
